# Key:
# [1] = acidic conditions (pH<2.0 for H3H)
# [2] = Figure 1, earlier compound; cited from earlier work
SMILES,"stability under acidic conditions, in words [1]","water solubility, in words [2]"
NCCCCn1c(-c2ccccc2)cc2ccc(C(=O)c3cc(CC(=O)NO)c(-c4cccc(O)c4)s3)cc21 [Inhibitor H3H],chemical instability under acidic conditions,
"NCCCCn1c(-c2ccccc2)cc2ccc(C(=O)c3cc(CC(=O)NO)c(-c4ccccc4)s3)cc21 [APH, reference compound]",,water insoluble
"NCCCCn1c(-c2ccccc2)c(F)c2ccc(C(=O)c3cc(CC(=O)NO)c(-c4cccc(N)c4)s3)cc21 [Inhibitor F3A, 2-(5-(1-(4-Aminobutyl)-3-fluoro-2-phenyl-1H-indole-6-carbonyl)-2-(3-aminophenyl)thiophen-3-yl)-N-hydroxyacetamide]",stable under acidic conditions,
"NCCCCn1c(-c2ccccc2)c(F)c2ccc(C(=O)c3cc(CC(=O)NO)c(-c4ccc(O)cc4)s3)cc21 [Inhibitor F4H, 2-(5-(1-(4-Aminobutyl)-3-fluoro-2-phenyl-1H-indole-6-carbonyl)-2-(4-hydroxyphenyl)thiophen-3-yl)-N-hydroxyacetamide]",stable under acidic conditions,

# From article PMC2854131 (PLoS ONE, 2010)
